The target of assay [1] is T1, rhCA-IX ECD (Homo sapiens, UniProt Q16790). Nature of the assay: Western blot on purified rhCA-IX ECD. In kind it is binding. Conditions: reducing and non-reducing conditions. On the procedure: Nitrocellulose membranes were prepared and probed with the individual CA-IX Abs either non-purified CM (200 μL) or purified at a concentration of 5 μg/mL. Immunoreactive bands were visualized by chemiluminescence (Perkin-Elmer).
(In general: A western blot detects proteins with antibodies after separation by electrophoresis.)

Assay [2] concerns the target T1, rhCA-IX ECD. Nature of the assay: Reverse Phase Protein Array (RPPA). In kind it is binding. On the procedure:
Proteins were spotted in duplicate using a Genetix QArray2 contact printer with SMP3 split pins (ArrayIt) on 16 pads nitrocellulose slides (Whatman FAST) using a two pins configuration to print two identical proteins simultaneously. […] Printing was done at 20° C. and 60% constant humidity. The source plate containing native proteins was kept at about 12° C. on the robot's chilling device and the plate with denatured proteins was kept at 22° C. during printing to avoid any SDS precipitation. Once printed, the slides were stored for one hour at room temperature in a desiccator at 5 to 10% humidity, to dry the spotted proteins.
Slides were assembled in the 16-well incubation chambers (Whatman) and in the multi-slide frame (Whatman) that is a reusable holder for up to four slides. In this assembly, a liquid-tight well was created on top of each individual array pad. To block nonspecific binding, 100 μl of blocking solution (1×PBS/3% BSA/0.1% Tween20) was added to each well. Each chamber was sealed with aluminum tape to prevent evaporation and incubated (1 h, RT) with gentle agitation. The nitrocellulose pads were never allowed to dry from this step on. mAb were prepared by mixing 30 μl of each crude hybridoma supernatant with 30 μl of incubation solution (1×PBS/2% BSA/0.05% Tween20/Rabbit anti-GFP-AlexaFluor555 (0.9 μg/ml)). Blocking solution was aspired and replaced by the diluted mAb solution, incubation chambers were sealed with aluminum tape, and incubated while protected from light (2 h RT, 130 rpm shaking). mAb solutions were removed, wells were washed three times with 100 μl washing solution (1×PBS/0.1% Tween20), and the chambers were dismantled. At this point, slides were washed three times 5 minutes in 1×PBS/0.1% Tween20 followed by one 5 minutes wash in 1×PBS. After the last wash, excess liquid was removed without letting the nitrocellulose dry. To detect the mAb bound to their antigen, 270 μl of the secondary antibody Cy5-conjugated AffiniPure F(ab′)2 fragment donkey anti-mouse IgG (H+L) (1 μg/ml in 1×PBS/2% BSA/0.05% Tween20, was added. The slide was then covered with a plastic cover-slip and incubated protected from light in a high humidity chamber (RT) for 45 minutes, with shaking (100 rpm). The slides were then washed (as described above) and dried by centrifugation in a vertical position.
To normalize for ‘slide-to-slide’ signal intensity variations, the binding intensity of each mAb was divided by the median of the entire slide mAb binding intensities to native proteins.
The result is the mAb binding affinity in fluorescence unit (FU) above median. Antibody-antigen binding was considered specific when the binding affinity value was at least 2 times above the binding affinities standard deviation of all spotted proteins.

A further assay concerns the target rhCA-IX ECD Dimer (Homo sapiens, UniProt Q16790). Conditions: hybridoma-derived mAb. The protocol:
(§1) All SPR assays were carried out using a BioRad ProteOn XPR36 instrument (Bio-Rad Laboratories (Canada) Ltd. (Mississauga, ON)) with PBST running buffer at a temperature of 25° C. The polyclonal goat anti-mouse Fc (Jackson Immuno Research Laboratories Inc.) capture surface was generated using a GLC sensorchip activated by a 1:10 dilution of the standard BioRad sNHS/EDC solutions injected for 140 s at 100 μL/min in the analyte (horizontal) direction. Immediately after the activation, a 10 μg/mL solution of anti-human Fc antibody in 10 mM NaOAc pH 4.5 was injected in the analyte (horizontal) direction at a flow rate of 25 μL/min until approximately 4000 resonance units (RUs) were immobilized. Remaining active groups were quenched by a 140 s injection of 1M ethanolamine at 100 μL/min in the horizontal direction; this also ensures mock-activated interspots are created for blank referencing.
(§2) Sensorgrams were aligned and double-referenced using the buffer blank injection and interspots, and the resulting sensorgrams were analyzed using ProteOn Manager software v3.1. The double-referenced sensorgrams were fit to the 1:1 binding model to determine the rate constants for association and dissociation (ka and kd) and the corresponding affinity (KD).

For assay [3], the target named is rhCA-IX ECD Mixture (Monomer + Dimer) (Homo sapiens, UniProt Q16790). Particulars: hybridoma-derived mAb, 25° C. The protocol: as §1, §2
For a further assay, the target named is rhCA-IX ECD Monomer (Homo sapiens, UniProt Q16790). Conditions: hybridoma-derived mAb. On the procedure: as §1, §2
The target of assay [4] is T1, rhCA-IX ECD. It is filed as biochemical. Particulars: mAb:rhCA-IX ECD mixture ratio 1:1. On the procedure:
The kinetic measurements were carried out in 96-well solid black microplates (Corning) at pH 7.5 in a reaction mixture containing 25 mM MOPS, 15 mM Na2SO4, 0.5 mM EDTA and 2% (v/v) DMSO (final concentration). A final enzyme concentration of 0.5 μM for the dimer or 1 μM for the monomer was used. […] Reactions were initiated by the addition of 100 μM 4-Methylumbelliferylacetate. […] Rates were determined in the initial and ‘end portion’ of each of the curves.

Assay [5] deals with T2, low hCA-IX expressing sk-rc-59 cells (Homo sapiens, UniProt Q16790).
T2 construct: endogenous in cells; host or cells: sk-rc-52 (high CA-IX) and sk-rc-59 (low CA-IX) human renal carcinoma cells
Nature of the assay: Flow cytometry. Particulars: 10 μg/mL mAb; low CA-IX expression. In kind it is cell-based.

The next assay relates to sk-rc-52 cells. Nature of the assay: Surrogate ADC assay (Mab-Zap saporin secondary antibody). In kind it is cell-based, human. Particulars: 10 nM mAb with 20 nM Mab-Zap, 72 h, Sulforhodamine; versus M75 mAb. On the procedure: mAb were evaluated in a surrogate ADC assay using the high hCA-IX-expressing sk-rc-52 cells. The ADC assay was carried out using a commercially available ADC kit (atsbio.com) according to the manufacturer's instructions with some modifications. Briefly, sk-rc-52 (expressing high levels of hCA-IX) and sk-rc-59 (expressing low levels of hCA-IX) cells were seeded in RPMI/5% FBS in 96-well plates at a density of 5000 and 3000 cells/well, respectively. The next day, 10 nM of mAb was mixed with 20 nM of the Mab-Zap secondary antibody from the ADC kit, incubated (30 min, RT) prior to diluting the mixture 11× in RPMI/5% cell growth medium, and 10 μL of these mixtures were added to the cells (experiment carried out in triplicate). After 72 h of incubation (37° C., 5% CO2, humidified incubator), cell viability (bio mass) was determined using Sulforhodamine. For this procedure, 25 μl of 50% TCA was added to each well and plates were incubated (1 h, 4° C.). Plates were then washed 4× with tap water and air-dried at room temp. 100 μl of 0.4% (wt/vol in 1% acetic acid) SRB solution was added to each well and incubated (30 min, RT). […] Viability of the cells is expressed as the ratio of the mAb-ZAP secondary conjugate alone.

Assay [6] deals with rhCA-IX ECD monomer or dimer (Homo sapiens, UniProt Q16790).
[7] abbreviates: Purified Antigen, binding affinity in fluorescence unit above median.

B1: 12H8: hybridoma-derived mouse IgG1, κ anti-CA-IX mAb; VL SEQ ID NO:23, VH SEQ ID NO:24; binds PG-like domain (antibody, V domains shown)
VH: QIQLVQSGPELKKPGETVKISCKASGYTFTNYGMNWVQQAPGKGLKWMGWINTYTGEPTYADDFKGRFAFSLETSASTAYLQINNLKNEDMATYFCARGGIATPTSYWGQGTTLTVSS
VL: DVVMTQTPLTLSVTIGQPASISCKSSQSLLDSDGKTYLNWLLQRPGQSPKRLIYLVSKLDSGVPDRFTGSGSGTDFTLKISRVEAEDLGVYYCCQGTHFPWTFGGGTKLEIK
modifications: mAb 12H8 VH; mAb 12H8 VL
In the case of B1, in the assay with rhCA-IX ECD [1] (after purification of the mAb), the “detection of rhCA-IX by Western blot” value is recorded as “able to detect”. In addition, the “detection of rhCA-IX ECD by Western blot” value in the assay with rhCA-IX ECD [1] (non-purified mAb (CM)) is reported as “did not detect”. Moreover, in the assay with rhCA-IX ECD [2] (Antigen in protein mixture), the “Denatured (D)” value is listed as 4.15 FU, the “Native (C)” value worked out at 50.26 FU and the mAb binding specificity result was “rhCA-IX ECD”. Besides, in the assay with rhCA-IX ECD [2] (setting [7]), the “Denatured (B)” value is recorded as 142.32 FU and the “Native (A)” value is 158.01 FU. Further, in the assay with rhCA-IX ECD Dimer, the ka is 2.27 × 10^6 and the kd was 3.22 × 10^−4. For the same molecule, in assay [3], the ka was 1.13 × 10^6 and the kd was 9.70 × 10^−12. For the same molecule, in the assay with rhCA-IX ECD Monomer, the kd entry is “Biphasic”. Further, in the assay with rhCA-IX ECD [4], the “% rhCA-IX ECD Activity” value is reported as 102.8%, the Comments entry is “No inhibition” and the “Data 1” value is reported as 102.8. The “binding to sk-rc-59 cells (flow cytometry)” value in [5] is “virtually no binding was detected”. The “reduction of cell viability” value in the assay with sk-rc-52 cells was “equal to or better than the M75 mAb”. Also, the “competition for binding (epitope binning)” value in assay [6] is listed as “do not compete”.

The values are drawn from patent publication US10487153B2, “Carbonic anhydrase IX-specific antibodies and uses thereof” (National Research Council of Canada, priority 2015, dated 2019).
